{"source": "paper PMC6919601", "about": "“Identification of Plasmodium dipeptidyl aminopeptidase allosteric inhibitors by high throughput screening” (PLoS ONE, 2019)", "note": "Out of some 110,000 compounds screened, about 230 (0.21%) showed an effect of 50% or more. The list shows a part of the results.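 Note: 30 min substrate incubation versus DMSO and 10 µM JCP410 controls.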"}
{"molecular_target": "DPAP1 (Plasmodium falciparum, UniProt Q8IIJ9)", "sequence (Q8IIJ9 whole entry, looked up)": "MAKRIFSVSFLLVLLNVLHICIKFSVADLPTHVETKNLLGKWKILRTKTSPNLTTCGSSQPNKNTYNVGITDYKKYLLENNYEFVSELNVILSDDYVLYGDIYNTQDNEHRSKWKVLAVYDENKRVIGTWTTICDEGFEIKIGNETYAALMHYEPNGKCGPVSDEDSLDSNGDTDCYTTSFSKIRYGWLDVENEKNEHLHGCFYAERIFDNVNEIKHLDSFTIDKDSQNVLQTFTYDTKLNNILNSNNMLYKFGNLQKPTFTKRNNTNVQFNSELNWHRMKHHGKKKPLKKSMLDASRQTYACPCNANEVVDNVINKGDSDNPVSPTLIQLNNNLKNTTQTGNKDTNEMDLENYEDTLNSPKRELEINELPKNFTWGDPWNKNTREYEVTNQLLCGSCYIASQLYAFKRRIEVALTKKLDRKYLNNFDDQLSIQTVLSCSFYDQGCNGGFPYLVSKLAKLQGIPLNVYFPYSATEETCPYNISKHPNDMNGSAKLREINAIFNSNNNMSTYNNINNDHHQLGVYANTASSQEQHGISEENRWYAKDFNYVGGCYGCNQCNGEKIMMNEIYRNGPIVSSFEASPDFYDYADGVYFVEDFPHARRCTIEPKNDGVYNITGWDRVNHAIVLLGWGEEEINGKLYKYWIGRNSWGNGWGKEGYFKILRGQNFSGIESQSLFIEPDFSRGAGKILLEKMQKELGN", "test": "primary screen, percent inhibition; read by cleavage of a fluorogenic dipeptide substrate; higher = more effect of the substance", "set-up": "species or system P. falciparum D10 trophozoite lysates; single well", "units": {"% Inhibition @ 10 uM": "%"}}
{"smiles": "N#Cc1c2c(nc(N)c1-c1ccccc1)CCCCC2", "% Inhibition @ 10 uM": -2.97}
{"smiles": "CCN(CC)C(=O)N1CCc2ccccc2C1CN1C(=O)c2ccccc2C1=O", "note": "(stereo not shown)", "% Inhibition @ 10 uM": 20.5}
{"smiles": "Cn1c(=O)c2c(nc(CN3CCc4ccccc4C3)n2Cc2ccccc2)n(C)c1=O", "% Inhibition @ 10 uM": -0.499}
{"smiles": "CN(Cc1nc(-c2ccccn2)no1)S(=O)(=O)c1ccccc1", "% Inhibition @ 10 uM": -4.54}
{"smiles": "Cc1nc2[nH]c(C(F)(F)F)nc2cc1Br", "% Inhibition @ 10 uM": 18.4}
{"smiles": "CCCCCC(=O)Nc1cc(OC)c(Cl)cc1OC", "% Inhibition @ 10 uM": 4}
{"smiles": "CCOC(=O)N1CCN(C(=O)C2c3ccccc3C(=O)N(C)C2c2cn(C)c3ccccc23)CC1", "note": "(stereo not shown)", "% Inhibition @ 10 uM": 6.28}
{"smiles": "COc1cc(/C=C2\\SC(=O)N(CC(=O)Nc3ccc(C)cc3)C2=O)cc(Cl)c1OC", "% Inhibition @ 10 uM": 1.89}
{"smiles": "COc1ccc(NC(=O)c2cc3c(C)nn(-c4ccccc4)c3s2)cc1", "% Inhibition @ 10 uM": -0.132}
{"smiles": "CCOc1ccc(CNc2ccc(N3CCN(C(C)=O)CC3)cc2)cc1", "% Inhibition @ 10 uM": -7.22}
{"smiles": "O=C(Cc1ccc(Br)cc1)Nc1ccc(Cl)cn1", "% Inhibition @ 10 uM": -3.65}
{"smiles": "CCCCNC(=O)c1ccc2c(Cl)c3c(nc2c1)CCCC3", "% Inhibition @ 10 uM": -0.646}
{"smiles": "Cc1nnc(C)n1/N=C/c1cccc(Oc2ccccc2)c1", "% Inhibition @ 10 uM": -0.339}
{"smiles": "Cn1c2c(c(=O)n(C)c1=O)CN(Cc1ccc3c(c1)OCO3)CN2", "% Inhibition @ 10 uM": 0.66}
{"smiles": "Cc1cccc(OCC(O)Cn2c(C)nc3ccccc32)c1", "note": "(stereo not shown)", "% Inhibition @ 10 uM": -6.71}
{"smiles": "CCOc1ccc(C(=O)Nc2cccc3ccccc23)cc1", "% Inhibition @ 10 uM": -4.35}
{"smiles": "CCOC(=O)c1sc(NC(=O)CSc2nc(C)c(CC(C)C)[nH]2)nc1C", "% Inhibition @ 10 uM": 1.76}
{"smiles": "CCOC(=O)c1c(NC(=S)Nc2ccccc2)sc2c1CCN(CC)C2", "% Inhibition @ 10 uM": 39.5}
{"smiles": "Cc1ccc(C(=O)N2CCC(c3nc(O)c4nnn(Cc5ccccc5C)c4n3)CC2)cc1", "% Inhibition @ 10 uM": 0.347}
{"smiles": "CCCCNC(=O)CSc1nc2ccccc2c2nc3ccccc3n12", "% Inhibition @ 10 uM": -0.801}
{"smiles": "COc1ccc(CNC(=O)c2ccnn2C(F)F)cc1OC", "% Inhibition @ 10 uM": 14}
{"smiles": "O=C(c1ccc(Br)o1)N(Cc1nc(-c2ccccc2)no1)C1CCCCC1", "% Inhibition @ 10 uM": 3.74}
{"smiles": "CC(C)C[C@H](NS(=O)(=O)c1ccc(C(C)(C)C)cc1)C(=O)NCC#N", "% Inhibition @ 10 uM": -1.61}
{"smiles": "COC(=O)c1ccc(/C=C2\\N=C(c3cccc(C)c3)OC2=O)cc1", "% Inhibition @ 10 uM": 4.54}
{"smiles": "COc1ccc(NS(=O)(=O)c2cccc(C(=O)Nc3ccccc3C(=O)O)c2)cc1", "% Inhibition @ 10 uM": -0.0369}
{"smiles": "COc1ccc(CNC2CCCc3ccccc32)cc1", "note": "(stereo not shown)", "% Inhibition @ 10 uM": -2.87}
{"smiles": "CCNc1oc(-c2cccs2)nc1S(=O)(=O)c1ccc(Cl)cc1", "% Inhibition @ 10 uM": 0.245}
{"smiles": "O=C(O)C1c2ccccc2C(=O)N(C2CCCC2)C1c1cccs1", "note": "(stereo not shown)", "% Inhibition @ 10 uM": 4.33}
{"smiles": "Cc1ccc(Nc2ncnc3sc4c(c23)CCCC4)c(C)c1", "% Inhibition @ 10 uM": 4.7}
{"smiles": "CCOC(=O)/C(C#N)=C/c1c(Oc2ccccc2)nc2c(C)cccn2c1=O", "% Inhibition @ 10 uM": -1.43}
{"smiles": "O=C(NCCCN1CCCC1=O)c1ccc2snnc2c1", "% Inhibition @ 10 uM": -0.0235}
{"smiles": "COc1ccc(Cl)cc1C(=O)N1CCN(c2ccccc2OC)CC1", "% Inhibition @ 10 uM": -3.92}
{"smiles": "Cc1ccc(CCNC(=O)c2ccc3c(c2)ncn3C2CCCC2)cc1", "% Inhibition @ 10 uM": -4.97}
{"smiles": "NS(=O)(=O)c1ccc(NC(=O)c2ccccc2Cl)cc1", "% Inhibition @ 10 uM": 1.48}
{"smiles": "O=C(Nc1nncs1)C1(c2ccccc2)CCCC1", "% Inhibition @ 10 uM": 0.9}
{"smiles": "FC(F)(F)C1CC(c2cccs2)Nc2ncnn21", "note": "(stereo not shown)", "% Inhibition @ 10 uM": -4.93}
{"smiles": "CC(=O)C1=C(O)C(=O)N(C)C1c1ccc(F)cc1", "note": "(stereo not shown)", "% Inhibition @ 10 uM": 1}
{"smiles": "Cc1ccc(C#N)c(SCC(N)=O)n1", "% Inhibition @ 10 uM": -1.93}
{"smiles": "CC(C)c1c(O)c2c(n(-c3ccccc3)c1=O)CCCC2", "% Inhibition @ 10 uM": 3.05}
{"smiles": "Cc1ccc(C(=O)Nc2cc([N+](=O)[O-])ccc2C)cc1", "% Inhibition @ 10 uM": 4.6}
{"smiles": "Cc1[nH]c2ccccc2c1C1N2CC3(C)CN1CC(C)(C2)C3", "note": "(stereo not shown)", "% Inhibition @ 10 uM": 6.37}
{"smiles": "CCOc1cc(CN2CCN(Cc3ccccc3)CC2)ccc1O", "% Inhibition @ 10 uM": 3.9}
{"smiles": "Cc1ccc(Cc2c(C)nc(C)nc2O)c(C)c1", "% Inhibition @ 10 uM": 5.26}
{"smiles": "CCOc1cc(C(=O)O/N=C(\\N)c2cccnc2)cc(OCC)c1OCC", "% Inhibition @ 10 uM": 2.25}
{"smiles": "OCCN1CCN(C2CCCCCC2)CC1", "% Inhibition @ 10 uM": 3.19}
{"smiles": "O=C1CC(NCCCCO)C(=O)N1c1ccc(Cl)cc1", "note": "(stereo not shown)", "% Inhibition @ 10 uM": 3.46}
{"smiles": "Nc1c(C(=O)Nc2ccccc2F)sc2nc3c(cc12)CCC3", "% Inhibition @ 10 uM": -5.82}
{"smiles": "CCc1ccc(-c2nc(C)c(C(C)=O)n2O)cc1", "% Inhibition @ 10 uM": 2.32}
{"smiles": "CN1CCN(Cc2nnc(S)n2-c2cccc(C#N)c2)CC1", "% Inhibition @ 10 uM": 0.986}
{"smiles": "O=C(NC1CCCC1)c1ccccc1C(=O)NC1CCCC1", "% Inhibition @ 10 uM": 3.67}
{"smiles": "Cc1cc(Cl)ccc1OCCCC(=O)Nc1nc2ccccc2[nH]1", "% Inhibition @ 10 uM": 0.64}
{"smiles": "Cc1ccc(CNc2nc(S)nc3ccccc23)o1", "% Inhibition @ 10 uM": 5.43}
{"smiles": "Cc1cccc(NC(=O)c2cnn(C)c2)c1C", "% Inhibition @ 10 uM": -10}
{"smiles": "CN1CCN(CC(=O)Nc2ccc(OC(F)(F)Cl)cc2)CC1", "% Inhibition @ 10 uM": -0.564}
{"smiles": "Cn1c(=O)c2c(nc(SCc3nc(O)c4ccccc4n3)n2Cc2ccccc2F)n(C)c1=O", "% Inhibition @ 10 uM": 7.16}
{"smiles": "CCOc1cc2c(cc1OCC)C(c1ccccc1F)NCC2", "note": "(stereo not shown)", "% Inhibition @ 10 uM": 0.231}
{"smiles": "COc1ccc(C2=NN(c3nc(-c4ccc(Cl)cc4)cs3)C(c3ccc(OC)cc3)C2)cc1", "note": "(stereo not shown)", "% Inhibition @ 10 uM": -2}
{"smiles": "O=C(CC1Sc2ccccc2NC1=O)Nc1ccc(F)cc1", "note": "(stereo not shown)", "% Inhibition @ 10 uM": 0.317}
{"smiles": "Cc1nc(O)c2c(n1)OC(N)=C(C#N)C2c1ccccc1F", "note": "(stereo not shown)", "% Inhibition @ 10 uM": 1.26}
{"smiles": "COc1ccc(OC)c(C2CC(=O)N=C(NC(=O)c3cc(OC)c(OC)c(OC)c3)N2)c1", "note": "(stereo not shown)", "% Inhibition @ 10 uM": 3.89}
{"smiles": "CSc1nc(O)c2c(n1)N=C1CCCC(O)=C1C2c1ccc(OCc2ccccc2)cc1", "note": "(stereo not shown)", "% Inhibition @ 10 uM": 5.85}
{"smiles": "CCOC(=O)c1ccc(CNS(=O)(=O)c2ccc(S(=O)(=O)N3CCOCC3)cc2)o1", "% Inhibition @ 10 uM": -6.84}
{"smiles": "CCC1CCCCN1C(=O)CSc1nnc(CNC(=O)c2c(F)cccc2Cl)o1", "note": "(stereo not shown)", "% Inhibition @ 10 uM": 0.163}
{"smiles": "Cc1ccc(C2C3=C(O)c4ccccc4C3=Nc3c2c(=O)[nH]c(=O)n3C)cc1Cl", "note": "(stereo not shown)", "% Inhibition @ 10 uM": 8.59}
{"smiles": "O=C(Nc1nnc(S(=O)(=O)N2CCCCC2)s1)c1cccc(Br)c1", "% Inhibition @ 10 uM": -5.37}
{"smiles": "Cc1cccc(CN2CCOCC2)c1", "% Inhibition @ 10 uM": 2.7}
{"smiles": "COCCn1c(=N)c(C(=O)NCc2ccccc2)cc2c(=O)n3cc(C)ccc3nc21", "% Inhibition @ 10 uM": 0.279}
